Read counts are not given, so values of variants with three or more changes are uncertain.
B1: CPEB3 Ribozyme (parent)
chain: UAACAGGGGGCCACAGCAGAAGCGUUCACGUCGCAGCCCCUGUCAGAUUCUGGUGAAUCUGCGAAUUCUGCUGUAUAUCUC

Variants of: B1
Assay: self-cleavage, relative activity (ratio to wild type); higher = more cleavage; in vitro, sequencing
Procedure, shortened: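 CPEB3 self-cleaving ribozyme mutant libraries were made by rounds of error-prone PCR, barcoded, and transcribed in vitro with T7 RNA polymerase for 5 hours at 37°C. Cleavage occurred during transcription and a 15 min DNase I step before EDTA stop. RNAs were reverse transcribed with template switching and Illumina-sequenced, with DNA sequencing mapping barcodes to variants. Relative activity is the variant's cleaved/total read fraction divided by wild type's (minimum 5 reads), averaged across three batches.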

Question: For UAACAGGGGGCCUCAGCAGAAGCGUUCGCGUCGCAGCCCCUGUUAGAUCCUGGUGAAUCUGCGAAUUCUGCUGUAUUUCUC [A13U A28G C44U U49C A77U], which self-cleavage is on record?
Answer: The self-cleavage was 0.07.

Question: With UAACAGGGGGCCUCAGCAGAAGCGUUCGCGUCGCAGCCCCUGUCAGAUUCUAGUGAAUCUGCGGAUUCUGCUGUAAACCUC [A13U A28G G52A A64G U76A U78C] as the variant, how does the self-cleavage read?
Answer: Its self-cleavage is 0.59.

Question: With UAACAGGGGGCCUCAGCAGAAGCGUUCACGUCGCGGCCCCUGCCAGUUGCUGGUGAAACUGCGAAUUCUGCUGUAUAUCUC [A13U A35G U43C A47U U49G U58A] as the variant, how does the self-cleavage read?
Answer: The self-cleavage was 0.42.

Question: Which self-cleavage does the source give for UAACAGGGGGCCUCAGCAGAAGCGUUCGCGUCGCAGCCCCUGUCAGAUUCUGGUGAAUCUGCGAGUACUGCUGUAUAUCUC [A13U A28G A65G U67A] here?
Answer: The self-cleavage was 0.14.

Question: With UAACAGGGGGCCUCAGCAGAAGCGUUCGCGUCGCGGCCCCUGUCAGAUUCUGGUGAAUCUGCGAAUCCUGCUGUAUAUUUC [A13U A28G A35G U67C C79U] as the variant, how does the self-cleavage read?
Answer: Its self-cleavage is 0.34.

Question: Which self-cleavage does the source give for UAACAGGGGGCCUCAGCAGAAGCGUUCACGUCGCGGCCCCUGUCAGAUUCUGGUGAAUCUGUGAAUCCUGCUGUAUAUCUC [A13U A35G C62U U67C] here?
Answer: The self-cleavage was 0.47.

Question: With UAACAGGGGGCCUCAGCAGAAGCGUUCGCGUCACAGCCCCUGUCAGAUUCUGGUGAAUCUGCGAAUUCUGCUGUAUAUCUC [A13U A28G G33A] as the variant, how does the self-cleavage read?
Answer: The self-cleavage was 0.16.

Question: Which self-cleavage does the source give for UAACAGGGGGCCUCAGCAGAAGCGUUCACGUCGCGGCCCCUGUCAGAUUCCGGUGAAUCUGCGAAUUCCGCUGUAUAUCUC [A13U A35G U51C U69C] here?
Answer: Its self-cleavage is 1.1.

Question: For UAACAGGGGGCCUCAGCAGAUGCGUUCACGCUGCAGCCCCUGUCAGAUUCUGGUGAAUCAGCGAAUUCUGCUGUAUAUCUC [A13U A21U U31C C32U U60A], which self-cleavage is on record?
Answer: Its self-cleavage is 0.1.

Question: For UAACAGGGGGCCUCAGCAGAAGCGUUCGCGUCGCAGCUCCUGUCAGAUUCUGGUGGAUCUGUGAAUUCUGCCGUAUACCUC [A13U A28G C38U A56G C62U U72C U78C], which self-cleavage is on record?
Answer: The self-cleavage was 0.05.

Question: Which self-cleavage does the source give for UAACAGGGGGCCUCAGCAGAAGCGUUCCCGCCGCAGCCCCUGUCAGAUUCUGGUGAAUCUGCGAAUUCUGCAGUAUAUCUC [A13U A28C U31C U72A] here?
Answer: Its self-cleavage is 0.1.

Question: Which self-cleavage does the source give for UAACAGGGGGCCUCAGCAGAUGCGUUCACGUCGCAGCCCCUGUCAGAUUCUUGUGGAUCUGCGAAUUCAGCUGUAUACCUC [A13U A21U G52U A56G U69A U78C] here?
Answer: The self-cleavage was 0.11.

Question: Which self-cleavage does the source give for UAACAGGGGGCCUCAGCAGAAGCGUUCGCGCCGCAGCCCCUGUCAGAUUCUGGUGAAUCUGCGAAUUCUGCUGUAUAUCUC [A13U A28G U31C] here?
Answer: Its self-cleavage is 0.55.

Question: Which self-cleavage does the source give for UAACAGGGGGCCUCAGCAGAAGCGUUCACGUCGCCGCCCCUGUCAGACUCUGGUGAAUCUGCGAAUUCUGCUGUAUAUCUC [A13U A35C U48C] here?
Answer: Its self-cleavage is 0.38.

Question: With UAACAGGGGGCCUCAGCAGAAGCGUUCGCGUCGCAGCCCCUGUCAGAUUCUAGUGAAUCUGAGAAUUCUGCUGUAUAUCUC [A13U A28G G52A C62A] as the variant, how does the self-cleavage read?
Answer: Its self-cleavage is 0.1.

Question: Which self-cleavage does the source give for UAACAGGGGGCCUCAGCAGAAGCGUUCACGUCGCGGCCCCUGUCAGAUUCAGGUGAAUCUGCGAAUCCUGCUGUAUAUCUC [A13U A35G U51A U67C] here?
Answer: The self-cleavage was 0.38.

Question: With UAACAGGGGGCCUCAGCAGAAGCGUUCUCGUCGCGGCCCCUGUCAGAUUCUGGUGGAUCUGCGAAUUCUGCGGUAUAUCUC [A13U A28U A35G A56G U72G] as the variant, how does the self-cleavage read?
Answer: The self-cleavage was 1.21.

Question: For UAACAGGGGGCCUCAGCAGAAGCGUUCUCGUCUCAGCCCCUGUCAGACUCUGGUGAGUCUGUGAAUUCUGCUGUAUAUCUC [A13U A28U G33U U48C A57G C62U], which self-cleavage is on record?
Answer: Its self-cleavage is 0.08.

Question: With UAACAGGGGGCCUCAGCAGAAGCGUUCACGUCGCGGCCCCUAUCAGAUUCUGGUAAAUCUGCGAAUUCUGCUGUAUAUCUC [A13U A35G G42A G55A] as the variant, how does the self-cleavage read?
Answer: The self-cleavage was 0.32.

Question: Which self-cleavage does the source give for UAACAGGGGGCCUCAGCAGAAGCGUUCCCGUUGAAGCCCCUGUCGGAUUCUUGUGAAUCUGCGAAUUCUGCUGUAUAUCUC [A13U A28C C32U C34A A45G G52U] here?
Answer: The self-cleavage was 0.05.

Question: Which self-cleavage does the source give for UAACAGGGGGCCUCAGCAGAAGCGUUCUCGUCGCAGCCCCUGUCAGAUUCUGGUGAAUCUGUGGAUCCUGCUGUAUAUCUC [A13U A28U C62U A64G U67C] here?
Answer: The self-cleavage was 0.1.

Question: Which self-cleavage does the source give for UAACAGGGGGCCUCAGCAGAUGCGUUCACGUCGCAGCCCCUGUCAGAUUCUGGUAAAUCUGCGAUUUUUGCUGUAUACCUC [A13U A21U G55A A65U C68U U78C] here?
Answer: Its self-cleavage is 0.08.

Question: Which self-cleavage does the source give for UAACAGGGGGCCUCAGCAGAAGCGUUCGCGUCGCAGCCCCUGUCAGAUUCUGGCGAAACUGCGAAUUCUGCUGUAUACCUC [A13U A28G U54C U58A U78C] here?
Answer: The self-cleavage was 0.12.

Question: For UAACAGGGGGCCUCAGCAGAGGCGUUCACGUCGCAGCCCCUGUCAGAUUCUGGUGAAUCUGCGAAUUCUGCUGAAUAUCUC [A13U A21G U74A], which self-cleavage is on record?
Answer: The self-cleavage was 0.77.

Question: For UAACAGGGGGCCUCAGCAGAAGCGUUCGCGUCGCAGCCCCUGUCAGAUUCUGGUAAGUCUGCGAAUUCUGCUGUAUAUCUC [A13U A28G G55A A57G], which self-cleavage is on record?
Answer: Its self-cleavage is 0.43.

Question: For UAACAGGGGGCCUCAGCAGAAGCGUUCUCGUCGGAGCCCCCGUCAGAUUCUGGUGAAUCUGCGAAUUCUGCUGUAUAUCUC [A13U A28U C34G U41C], which self-cleavage is on record?
Answer: The self-cleavage was 0.1.

Question: Which self-cleavage does the source give for UAACAGGGGGCCUCAGCAGAAGCGUUCUUGUCGCAGCCCCUGUCAGAUUCUGGUGAAUCUGCGAAUUCUGCUGUAUUUCUC [A13U A28U C29U A77U] here?
Answer: Its self-cleavage is 0.43.

Question: Which self-cleavage does the source give for UAACAGGGGGCCUCAGCAGAAGCGUUCUCGUCGCAGCCCCUGUCAGAUUCUGGUGAAUCUGCGAACUCUGCUGUAUAUCUC [A13U A28U U66C] here?
Answer: The self-cleavage was 0.49.

Question: For UAACAGGGGGCCUCAGCAGAAGCGUUCACGUCGCGGCCCCUGUCAGAUUCUGGUGAAUCUGCGGAUUCCGCUGUAUAUCUC [A13U A35G A64G U69C], which self-cleavage is on record?
Answer: Its self-cleavage is 0.93.

Question: Which self-cleavage does the source give for UAACAGGGGGCCUCAGCAGAAGCGUUCACGUCGCGGCCCCAGUCAGGUUCUGGUGGAUCUGCGAAUUCUGCUGUAUUUCUC [A13U A35G U41A A47G A56G A77U] here?
Answer: Its self-cleavage is 0.21.

Question: With UAACAGGGGGCCUCAGCAGAAGCGUUCGCGUCGCAGCCCCUGACAGAUUCUGGUGAAUCUGCGAAUUCUGCUGUAUAUCUA [A13U A28G U43A C81A] as the variant, how does the self-cleavage read?
Answer: The self-cleavage was 0.89.

Question: With UAACAGGGGGCCUCAGCAGAAGCGUUCACGUCGCGGCCCCUGUCGGAUUCUGGUGAAUCUGUGAAUUCUGCUGUAUAUCAC [A13U A35G A45G C62U U80A] as the variant, how does the self-cleavage read?
Answer: Its self-cleavage is 0.57.

Question: For UAACAGGGGGCCUCAGCAGAAGCGUUCGCGUCGCAGCCCCUGUCAGAUUCUGGCGAAUCUGCGAAUUCUGCUGUAUAUCUC [A13U A28G U54C], which self-cleavage is on record?
Answer: Its self-cleavage is 0.63.

Question: Which self-cleavage does the source give for UAACAGGGGGCCUCAGCAGAUGCGUUCCCGUCGCAGCCCCUGUCAGAUUCUGCUGAAUCUGCGAAUUCUGCUGUAUAUCUC [A13U A21U A28C G53C] here?
Answer: Its self-cleavage is 0.07.

Source: the RNAGym collection of RNA variant scans (doi:10.1093/nar/gkz1192)
